Assay results reported in the supplement of paper PMC4967469.

Key:
Test in all cases: Viability of human cancer cell lines after 72 h of drug (GDSC screen)
VNLG/124 = compound: CCCC(=O)OCc1ccc(OC(=O)/C=C(C)/C=C/C=C(C)/C=C/C2=C(C)CCCC2(C)C)cc1 [VNLG/124]; conditions: top dose 5.12 µM; top dose inferred
Method: (§1)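 Human cancer cell lines in 384-well plates, medium with 10% serum, drug for 72 h over a 256-fold dose range (nine 2-fold or five 4-fold steps up to the top dose). Adherent lines were fixed and stained with the nucleic acid dye Syto60, suspension lines read with resazurin; signal relative to control wells, capped at 0 and 100%. One two-parameter sigmoid per drug and line, fitted in a mixed model over all curves with the slope shared within a line.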

Bleomycin = compound: Cc1c(N)nc([C@H](CC(N)=O)NC[C@H](N)C(N)=O)nc1C(=O)N[C@H](C(=O)N[C@H](C)[C@@H](O)[C@H](C)C(=O)N[C@H](C(=O)NCCc1nc(-c2nc(C(=O)NCCC[S+](C)C)cs2)cs1)[C@@H](C)O)[C@@H](OC1OC(CO)C(O)C(O)C1OC1OC(CO)C(O)C(OC(N)=O)C1O)c1cnc[nH]1 [Bleomycin]
Method: as §1

Masitinib = compound: Cc1ccc(NC(=O)c2ccc(CN3CCN(C)CC3)cc2)cc1Nc1nc(-c2cccnc2)cs1 [Masitinib]; conditions: top dose 20 µM
Method: as §1

LAQ824 = compound: O=C(/C=C/c1ccc(CN(CCO)CCc2c[nH]c3ccccc23)cc1)NO [LAQ824]; conditions: top dose 1.024 µM; top dose inferred
Method: as §1

OSI-930 = compound: O=C(Nc1ccc(OC(F)(F)F)cc1)c1sccc1NCc1ccnc2ccccc12 [OSI-930]; conditions: top dose 10.24 µM
Method: as §1

BX-912 = compound: O=C(Nc1cccc(Nc2ncc(Br)c(NCCc3cnc[nH]3)n2)c1)N1CCCC1 [BX-912]; conditions: top dose 10.24 µM; top dose inferred
Method: as §1

NSC-87877 = compound: O=S(=O)(O)c1ccc2cc(N=Nc3cc(S(=O)(=O)O)c4cccnc4c3O)ccc2c1 [NSC-87877]; conditions: top dose 16 µM; top dose inferred
Method: as §1

Elesclomol = compound: CN(NC(=O)CC(=O)NN(C)C(=S)c1ccccc1)C(=S)c1ccccc1 [Elesclomol]; conditions: top dose 0.2 µM; top dose inferred
Method: as §1

[1] = top dose 50 µM, screen: GDSC drug entry 1378, top dose inferred
[2] = top dose 64 µM, screen: GDSC drug entry 190

| Cell Line | AUC (VNLG/124) | IC50 (VNLG/124) | AUC (Bleomycin; [1]) | IC50 (Bleomycin; [1]) | AUC (Bleomycin; [2]) | IC50 (Bleomycin; [2]) | AUC (Masitinib) | IC50 (Masitinib) | AUC (LAQ824) | IC50 (LAQ824) | AUC (OSI-930) | IC50 (OSI-930) | AUC (BX-912) | IC50 (BX-912) | AUC (NSC-87877) | IC50 (NSC-87877) | AUC (Elesclomol) | IC50 (Elesclomol) |
| --- | --- | --- | --- | --- | --- | --- | --- | --- | --- | --- | --- | --- | --- | --- | --- | --- | --- | --- |
| HCC1599 (breast, suspension) | 0.978 | > 5.12 µM | 0.61 | 6.54 µM | 0.408 | 2.16 µM | 0.86 | > 20 µM | 0.33 | 0.0199 µM | 0.928 | > 10.2 µM | 0.791 | 5.37 µM | 0.978 | > 16 µM | – | – |
| COR-L311 (small cell lung carcinoma, suspension) | – | – | – | – | – | – | 0.85 | 16.9 µM | – | – | 0.908 | > 10.2 µM | 0.508 | 0.672 µM | – | – | – | – |
| NCI-H2171 (small cell lung carcinoma, suspension) | 0.991 | > 5.12 µM | – | – | 0.978 | > 64 µM | 0.946 | > 20 µM | 0.443 | 0.0457 µM | 0.978 | > 10.2 µM | 0.477 | 0.559 µM | 0.99 | > 16 µM | – | – |
| BT-549 (breast, adherent) | – | – | 0.644 | 9.16 µM | – | – | – | – | – | – | – | – | – | – | – | – | 0.435 | 0.00776 µM |
| UACC-812 (breast, adherent) | 0.991 | > 5.12 µM | – | – | 0.924 | > 64 µM | 0.907 | > 20 µM | 0.919 | > 1.02 µM | 0.988 | > 10.2 µM | 0.991 | > 10.2 µM | 0.989 | > 16 µM | – | – |
| COR-L303 (small cell lung carcinoma, suspension) | 0.98 | > 5.12 µM | – | – | – | – | 0.906 | > 20 µM | – | – | 0.987 | > 10.2 µM | 0.884 | > 10.2 µM | – | – | – | – |
| PC-3 (prostate, adherent) | 0.961 | > 5.12 µM | 0.606 | 6.5 µM | 0.648 | 11.3 µM | 0.9 | > 20 µM | 0.53 | 0.0786 µM | 0.979 | > 10.2 µM | 0.933 | > 10.2 µM | 0.974 | > 16 µM | – | – |
| HCC-33 (small cell lung carcinoma, adherent) | 0.988 | > 5.12 µM | – | – | 0.61 | 8.03 µM | 0.865 | 18.1 µM | 0.363 | 0.0266 µM | 0.973 | > 10.2 µM | 0.848 | 7.73 µM | 0.983 | > 16 µM | – | – |
| SNU-475 (liver, adherent) | 0.987 | > 5.12 µM | – | – | 0.858 | 43.1 µM | 0.927 | > 20 µM | 0.688 | 0.201 µM | 0.987 | > 10.2 µM | 0.956 | > 10.2 µM | 0.981 | > 16 µM | – | – |
| NCI-H748 (small cell lung carcinoma, suspension) | 0.977 | > 5.12 µM | – | – | 0.772 | 31.8 µM | 0.957 | > 20 µM | 0.385 | 0.0283 µM | 0.981 | > 10.2 µM | 0.8 | 6.61 µM | 0.974 | > 16 µM | – | – |

The IC50 comes from the fitted curve, where viability falls to half of the control; a fit beyond the top or the lowest dose is shown as a bound at that dose. AUC, from the same fit, is the share of area under the viability curve across the 256-fold dose range; it is 1 without any effect and falls as sensitivity rises. For part of these data: Where the top dose is marked as inferred, it was calculated from the reported fits. For part of these data: An entry number marks a drug with two screens in the source, which often give different values.
